Hit rate of the full screen: of about 310,000 compounds, about 14,000 (4.5%) showed an effect of 50% or more. The effect is printed as a negative number. This is one part of the list.
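Note: peak tail current of the secondary pulse compared with the same well before compound.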

Sequence of human ether-à-go-go-related gene (hERG) potassium channel (Q12809 whole entry, looked up): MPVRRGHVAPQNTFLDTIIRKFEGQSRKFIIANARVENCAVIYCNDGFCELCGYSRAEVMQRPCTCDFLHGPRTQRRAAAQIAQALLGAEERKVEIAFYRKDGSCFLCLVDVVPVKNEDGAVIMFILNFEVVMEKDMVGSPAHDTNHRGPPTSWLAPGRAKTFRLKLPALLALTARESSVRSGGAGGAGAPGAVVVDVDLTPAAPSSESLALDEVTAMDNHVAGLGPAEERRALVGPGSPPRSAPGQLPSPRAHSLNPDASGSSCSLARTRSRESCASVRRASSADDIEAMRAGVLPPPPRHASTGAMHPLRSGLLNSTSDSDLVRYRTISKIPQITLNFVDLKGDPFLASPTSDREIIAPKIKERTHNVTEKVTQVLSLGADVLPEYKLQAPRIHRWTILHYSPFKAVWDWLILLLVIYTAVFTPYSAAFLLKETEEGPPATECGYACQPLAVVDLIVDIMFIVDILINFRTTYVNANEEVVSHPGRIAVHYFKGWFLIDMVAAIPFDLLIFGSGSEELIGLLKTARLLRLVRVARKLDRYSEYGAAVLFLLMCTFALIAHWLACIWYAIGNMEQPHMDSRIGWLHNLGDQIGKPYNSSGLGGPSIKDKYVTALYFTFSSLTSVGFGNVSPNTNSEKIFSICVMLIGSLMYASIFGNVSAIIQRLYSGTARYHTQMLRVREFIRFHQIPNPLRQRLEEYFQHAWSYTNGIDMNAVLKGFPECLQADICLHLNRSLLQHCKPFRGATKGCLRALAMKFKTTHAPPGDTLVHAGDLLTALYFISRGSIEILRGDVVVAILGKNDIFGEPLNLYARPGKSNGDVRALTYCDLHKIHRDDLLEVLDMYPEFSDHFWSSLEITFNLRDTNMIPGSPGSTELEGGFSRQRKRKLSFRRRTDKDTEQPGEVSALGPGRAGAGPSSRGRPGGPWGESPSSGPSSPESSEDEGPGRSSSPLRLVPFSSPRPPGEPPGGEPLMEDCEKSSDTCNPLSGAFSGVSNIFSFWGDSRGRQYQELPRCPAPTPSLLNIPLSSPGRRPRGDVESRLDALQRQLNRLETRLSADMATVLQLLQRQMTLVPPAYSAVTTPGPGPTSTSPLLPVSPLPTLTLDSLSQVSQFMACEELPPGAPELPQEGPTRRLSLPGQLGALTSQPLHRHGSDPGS

The target of this assay is human ether-à-go-go-related gene (hERG) potassium channel (human, UniProt Q12809). Briefly: primary screen, population patch clamp on CHO cells stably expressing hERG. As for the experimental part:
Briefly, Chinese hamster ovary (CHO) cells stably expressing the hERG channel were dislodged from tissue culture flasks and dispensed into PPC plates. […] During the recording, background leak currents were estimated by a 100 ms step to -80 mV from an initial holding potential of -70 mV and subtracted from the subsequent current measurement. The campaign was conducted in two phases using slight differences in recording protocol. In the first phase, the initial voltage pulse used a 100 ms step to -30 mV from a holding potential of -70 mV, a 2 s conditioning step to +25 mV, and a 2 s test step to -30 mV. During the second phase of the screen, the potential during the conditioning step was raised to +45 mV. In both phases of the campaign, a secondary voltage pulse was applied using the same parameters as the second phase initial pulse. The initial and secondary pulses were applied in the absence of compound, and upon application of 1 μM and 10 μM test concentrations. […]
On to `CC(NC(=O)Nc1cccc([N+](=O)[O-])c1)c1ccc2c(c1)OCO2` (stereo not drawn), for which the “hERG current change (%, negative = inhibition) at 10uM” value is recorded as 9.68%. As for `COc1ccccc1CCN1CCCC(CN(C)C(=O)c2ccoc2)C1` (stereo not drawn), the figure is -51.2%; as for `O=C1[C@@H]2C(c3cccnc3)=NO[C@@H]2C(=O)N1c1ccc(Br)cc1`, 16.4%; as for `CC(C)COc1ccc(C(=O)N(CC(=O)Nc2ccccc2C(F)(F)F)Cc2ccco2)cc1`, -13.3%. As for `O=C(Nc1cc(Br)c(O)c(Br)c1)c1cccc(NC(=O)c2ccco2)c1`, the figure is -27%; as for `CCOC(=O)c1c(NC(=O)C(C)Sc2cccc[n+]2[O-])sc2c1CCN(Cc1ccccc1)C2` (stereo not drawn), -33%; as for `CC(C)Oc1ccc(N2C(=O)c3ccccc3C2=O)cc1`, 11.3%.

Regarding `Cc1cc(SCC(=O)c2ccccc2)n2ncc(-c3ccccc3)c2n1`, the “hERG current change (%, negative = inhibition) at 10uM” value was -3.63%.

For the compound `Clc1ccc(C2CC(c3cccs3)n3ncnc3N2)cc1Cl` (stereo not drawn), the “hERG current change (%, negative = inhibition) at 10uM” value is on record as -17.3%. As for `COc1ccc(NC(C)=O)cc1S(=O)(=O)Nc1ccc(C(=O)N2CCCC2)cc1`, the figure is 6.59%; as for `Cc1ccc(S(=O)(=O)N(Cc2ccccc2F)C(=O)N2CCN(C)CC2)cc1`, 14%. `O=C(c1cc(-c2cccnc2)nc2ccc(Cl)cc12)N1CCN(S(=O)(=O)c2cccs2)CC1`: the “hERG current change (%, negative = inhibition) at 10uM” value was -4.28%. As for `COC(=O)[C@]1(C)CCC[C@@]2(C)C3CC[C@@]4(C)C[C@]3(CCC21)CC(=O)N4C` (stereo partly drawn), the figure is 6.59%; as for `O=C(O)CC1=C(Nc2ccccc2)C(=O)N(c2ccccc2)C1c1ccc(Cl)cc1` (stereo not drawn), 11.3%; as for `Cc1c(Cl)cccc1NC(=O)CCN1CCN(CCO)CC1.Cl`, 20.6%.

For the compound `CCCCCC(C)NC(=S)NC(=O)c1cc(S(=O)(=O)N2CCOCC2)ccc1C` (stereo not drawn), the “hERG current change (%, negative = inhibition) at 10uM” value is listed as -7.03%. Take `COC(=O)c1ccccc1NC(=O)CC(=O)Nc1ccccc1C(=O)OC`: the “hERG current change (%, negative = inhibition) at 10uM” value was determined as 5.39%.

On to `COC(=O)c1ccc(CN2[C@H](C(=O)OC)C[C@@]3(O)[C@@H](O)[C@@H](O)[C@@H](O)C[C@@H]23)cc1`, for which the “hERG current change (%, negative = inhibition) at 10uM” value came to 14%. For `Cc1nn(Cc2ccccc2Cl)c(Cl)c1C(=O)NCCc1ccccc1` the value was 17%.

For `Cc1cc(C)nc(NS(=O)(=O)c2ccc(NC(=O)C3(c4ccc([N+](=O)[O-])cc4)CCCC3)cc2)n1`, the “hERG current change (%, negative = inhibition) at 10uM” value is given as 3.8%. For `CN1CCCCCC1=NC1=C(C#N)CCCC1` the value was -6.53%; for `CC(Cn1cnc2ccccc21)C(=O)O` (stereo not drawn), 12.3%.

Consider `O=C(Nc1cccc(C(=O)N2CCN(Cc3ccccc3)CC2)c1)c1ccccc1`, for which the “hERG current change (%, negative = inhibition) at 10uM” value is -16.7%. For `CCOC(=O)c1c(C)[nH]c(C)c1C(=O)COC(=O)c1ccc(O)cc1` the value was -1.29%.

Regarding `CCN(C(=O)CSc1nc2nc(C)cc(C)n2n1)c1ccccc1`, the “hERG current change (%, negative = inhibition) at 10uM” value is recorded as -8.31%. For `Cc1nn(C)c(C)c1NC(=O)c1ccccc1NC(=O)Nc1ccccc1` the value was 17.6%; for `CCC(C(=O)NC1CCCCC1)N(C(=O)c1snc(C(N)=O)c1N)c1ccc(OC)cc1OC` (stereo not drawn), -69.3%; for `CC(C)NC(=O)NC(=O)CSc1ncc(C(F)(F)F)cc1Cl`, -3.58%. Take `O=C(COC(=O)/C=C/c1ccc(Cl)cc1Cl)Nc1ccc2c(c1)OCCO2`: the “hERG current change (%, negative = inhibition) at 10uM” value is recorded as 18.5%. Consider `O=C(c1ccc(Cl)cc1)C1CCN(CC(=O)N2CCCCC2)CC1`, for which the “hERG current change (%, negative = inhibition) at 10uM” value is reported as -36.8%. Consider `COc1cccc(NC(=O)CN2C(=O)NC3(CCCc4ccccc43)C2=O)c1` (stereo not drawn), for which the “hERG current change (%, negative = inhibition) at 10uM” value turned out to be 3.75%. As to `Cn1ncc([N+](=O)[O-])c1C(=O)NCc1ccccc1`, the “hERG current change (%, negative = inhibition) at 10uM” value was found to be 12.1%.

On to `Cc1cc(C)cc(N(C(=O)c2csnn2)C(C(=O)NC2CCCCC2)c2ccncc2)c1` (stereo not drawn), for which the “hERG current change (%, negative = inhibition) at 10uM” value is recorded as 3.83%. For `O=C(Cn1cnc2c(nnn2Cc2ccc(Cl)cc2)c1=O)NCC1CCCO1` (stereo not drawn) the value was -0.834%; for `Cc1ccc(CCNC(=O)C2CCN(S(=O)(=O)N3CCCC3)CC2)cc1`, -7.98%; for `COc1ccc(CCNC(=O)COc2ncnc3ccccc23)cc1`, 1.86%.

Take `COc1ccc(-c2cc3ccc(OC(C)C(=O)O)cc3oc2=O)cc1` (stereo not drawn): the “hERG current change (%, negative = inhibition) at 10uM” value is 10.7%.

For the compound `Cc1cccc(NC(=O)C2CCN(C(=O)c3ccc(F)cc3)CC2)n1`, the “hERG current change (%, negative = inhibition) at 10uM” value is on record as -0.274%.

As to `Cc1c(C)n(Cc2ccccc2)c2ccc(C(=O)OCCN(C)C)cc12.O=C(O)CCC(=O)O`, the “hERG current change (%, negative = inhibition) at 10uM” value is -35.7%. With `COC(=O)[C@@H](Cc1c[nH]c2ccccc12)NC(=O)CNC(=O)c1ccccc1OC`, the “hERG current change (%, negative = inhibition) at 10uM” value was 17.5%. Regarding `COc1cc(/C=C/C(=O)Nc2cc(C(F)(F)F)ccc2Cl)cc(OC)c1OC`, the “hERG current change (%, negative = inhibition) at 10uM” value is 7.9%. For `COc1ccc(CN2CCC(=O)N([C@H](CO)Cc3ccccc3)CC2)cc1OC`, the “hERG current change (%, negative = inhibition) at 10uM” value was 0.538%.

For the origin of these results see article PMC4336329 (PLoS ONE, 2015).
